No constants are given. Whether binding was seen depends on the method and setting. Some entries that bind do so weakly or less than the wild type. Values belong to the binder of their own block, whether it stands above or below them.
What was measured:
Assay in all cases: two-hybrid; LexA-septin bait (modified pBTM116) in yeast L40 screened against human fetal brain and human leukocyte cDNA libraries (pACT2); minimal medium without Trp, Leu, His, with 5 mM 3-AT; every clone confirmed one-to-one with its bait by beta-galactosidase filter assay, empty bait vector as control
human septin 1 (human) = biological target: T1, human septin 1 (human) (UniProt Q8WYJ6)
T1 sequence: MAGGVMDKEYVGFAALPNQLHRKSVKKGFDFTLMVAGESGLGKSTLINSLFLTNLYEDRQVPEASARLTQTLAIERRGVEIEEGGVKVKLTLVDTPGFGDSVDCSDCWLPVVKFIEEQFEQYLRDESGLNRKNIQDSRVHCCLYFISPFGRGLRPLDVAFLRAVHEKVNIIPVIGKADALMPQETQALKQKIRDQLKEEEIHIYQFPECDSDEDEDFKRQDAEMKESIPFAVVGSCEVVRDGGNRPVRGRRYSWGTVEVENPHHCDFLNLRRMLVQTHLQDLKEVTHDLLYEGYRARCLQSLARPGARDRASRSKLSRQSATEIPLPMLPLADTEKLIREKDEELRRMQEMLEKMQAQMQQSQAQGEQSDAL

Amino acid sequences for entries named in this document (tags omitted). A change or cut given only in a name is not applied to a line headed by its entry. Chains listed by the source or under a name are the forms on record and can include a tag or linker.
human septin 3 (Q9UH03, form named): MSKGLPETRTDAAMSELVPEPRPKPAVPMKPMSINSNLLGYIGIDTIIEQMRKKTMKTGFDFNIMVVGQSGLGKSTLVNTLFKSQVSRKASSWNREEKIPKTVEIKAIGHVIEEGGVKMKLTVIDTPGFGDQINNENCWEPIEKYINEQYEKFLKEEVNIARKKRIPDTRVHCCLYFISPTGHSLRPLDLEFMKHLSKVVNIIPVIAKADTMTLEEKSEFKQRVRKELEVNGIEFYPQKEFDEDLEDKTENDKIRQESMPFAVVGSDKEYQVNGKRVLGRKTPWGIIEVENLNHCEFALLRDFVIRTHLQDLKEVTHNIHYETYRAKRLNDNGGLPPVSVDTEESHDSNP

human septin 10 (human) = biological target: T2, human septin 10 (human) (UniProt Q9P0V9)
T2 sequence: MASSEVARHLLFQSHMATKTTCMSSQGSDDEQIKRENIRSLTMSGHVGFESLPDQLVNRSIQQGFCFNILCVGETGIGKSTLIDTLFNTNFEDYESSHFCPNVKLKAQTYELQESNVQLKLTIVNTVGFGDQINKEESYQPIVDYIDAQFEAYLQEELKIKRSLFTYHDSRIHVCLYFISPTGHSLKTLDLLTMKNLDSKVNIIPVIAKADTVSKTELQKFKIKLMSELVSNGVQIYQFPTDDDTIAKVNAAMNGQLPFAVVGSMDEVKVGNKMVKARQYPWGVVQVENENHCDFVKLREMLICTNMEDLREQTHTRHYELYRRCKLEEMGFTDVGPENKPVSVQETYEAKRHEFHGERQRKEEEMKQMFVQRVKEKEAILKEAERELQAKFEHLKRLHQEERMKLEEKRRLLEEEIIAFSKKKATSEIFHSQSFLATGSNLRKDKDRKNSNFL

human septin 3 (human) = human septin 3 (human) (UniProt Q9UH03)
human septin 7 (human) = biological target: T3, human septin 7 (human) (UniProt Q16181)
T3 sequence: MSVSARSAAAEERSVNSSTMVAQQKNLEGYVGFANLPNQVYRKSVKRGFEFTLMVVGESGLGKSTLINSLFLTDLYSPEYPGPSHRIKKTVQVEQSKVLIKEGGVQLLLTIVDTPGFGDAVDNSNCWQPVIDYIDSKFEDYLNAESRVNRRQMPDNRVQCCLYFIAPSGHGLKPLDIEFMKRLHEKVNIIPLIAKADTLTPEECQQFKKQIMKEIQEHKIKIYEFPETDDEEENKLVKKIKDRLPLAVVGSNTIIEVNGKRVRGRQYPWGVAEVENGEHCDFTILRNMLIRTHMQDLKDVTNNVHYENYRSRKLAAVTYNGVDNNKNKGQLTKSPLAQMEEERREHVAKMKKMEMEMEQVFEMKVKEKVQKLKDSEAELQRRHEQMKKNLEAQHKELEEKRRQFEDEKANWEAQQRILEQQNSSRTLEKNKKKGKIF

human septin 8 (human) = biological target: T4, human septin 8 (human) (UniProt Q92599)
T4 sequence: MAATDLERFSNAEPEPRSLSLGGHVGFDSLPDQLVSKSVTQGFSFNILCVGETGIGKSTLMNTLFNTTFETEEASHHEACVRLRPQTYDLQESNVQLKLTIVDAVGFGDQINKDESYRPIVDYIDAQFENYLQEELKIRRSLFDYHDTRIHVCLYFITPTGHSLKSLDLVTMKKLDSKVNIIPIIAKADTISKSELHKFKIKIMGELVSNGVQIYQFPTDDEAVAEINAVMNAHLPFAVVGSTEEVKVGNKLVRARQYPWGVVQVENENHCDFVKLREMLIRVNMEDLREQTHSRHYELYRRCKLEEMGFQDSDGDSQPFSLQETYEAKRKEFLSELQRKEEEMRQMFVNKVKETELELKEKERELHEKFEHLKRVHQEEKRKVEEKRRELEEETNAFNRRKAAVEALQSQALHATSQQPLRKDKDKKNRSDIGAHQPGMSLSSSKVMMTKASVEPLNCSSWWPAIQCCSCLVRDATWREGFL

[1] = biological target: T5, human septin 6 (human), Q14141; details: remark: other sources report otherwise
T5 chain: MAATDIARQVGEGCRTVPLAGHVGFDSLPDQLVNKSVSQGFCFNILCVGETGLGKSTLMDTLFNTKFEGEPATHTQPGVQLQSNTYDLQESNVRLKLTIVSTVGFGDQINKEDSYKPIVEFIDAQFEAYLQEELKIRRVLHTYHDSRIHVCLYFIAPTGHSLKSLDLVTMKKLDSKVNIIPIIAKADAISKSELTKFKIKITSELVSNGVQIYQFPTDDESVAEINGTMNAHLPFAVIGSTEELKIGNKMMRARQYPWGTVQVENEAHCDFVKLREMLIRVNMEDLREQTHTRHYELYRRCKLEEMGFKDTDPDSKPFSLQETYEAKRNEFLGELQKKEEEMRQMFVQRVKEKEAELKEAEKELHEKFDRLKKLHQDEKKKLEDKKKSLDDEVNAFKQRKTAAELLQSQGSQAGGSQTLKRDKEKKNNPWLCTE

human septin 5 (human) = biological target: T6, human septin 5 (human) (UniProt Q99719)
T6 sequence: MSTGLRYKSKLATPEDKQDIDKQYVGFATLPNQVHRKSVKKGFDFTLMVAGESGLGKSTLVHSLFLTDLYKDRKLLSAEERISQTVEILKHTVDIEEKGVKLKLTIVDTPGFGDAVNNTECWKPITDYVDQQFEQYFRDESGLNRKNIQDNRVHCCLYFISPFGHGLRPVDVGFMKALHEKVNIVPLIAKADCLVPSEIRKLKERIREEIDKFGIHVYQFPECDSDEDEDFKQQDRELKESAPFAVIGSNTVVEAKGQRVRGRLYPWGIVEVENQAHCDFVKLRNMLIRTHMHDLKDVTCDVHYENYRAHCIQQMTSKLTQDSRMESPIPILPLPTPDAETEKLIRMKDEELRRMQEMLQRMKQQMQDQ

[2] = biological target: T7, human septin 9 N-terminal region (amino acid residues 1-269) (human) (UniProt Q9UHD8)
T7 sequence: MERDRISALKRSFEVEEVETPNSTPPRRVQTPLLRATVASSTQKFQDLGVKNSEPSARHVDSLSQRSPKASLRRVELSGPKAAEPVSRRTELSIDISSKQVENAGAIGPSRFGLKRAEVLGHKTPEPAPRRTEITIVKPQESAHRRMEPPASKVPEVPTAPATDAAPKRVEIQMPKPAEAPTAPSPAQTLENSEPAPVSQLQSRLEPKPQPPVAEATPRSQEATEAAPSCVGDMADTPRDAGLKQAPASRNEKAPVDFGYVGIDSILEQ

[3] = biological target: T8, human septin 9, transcript variant 3, protein isoform c, full length (human) (UniProt Q9UHD8)
T8 sequence: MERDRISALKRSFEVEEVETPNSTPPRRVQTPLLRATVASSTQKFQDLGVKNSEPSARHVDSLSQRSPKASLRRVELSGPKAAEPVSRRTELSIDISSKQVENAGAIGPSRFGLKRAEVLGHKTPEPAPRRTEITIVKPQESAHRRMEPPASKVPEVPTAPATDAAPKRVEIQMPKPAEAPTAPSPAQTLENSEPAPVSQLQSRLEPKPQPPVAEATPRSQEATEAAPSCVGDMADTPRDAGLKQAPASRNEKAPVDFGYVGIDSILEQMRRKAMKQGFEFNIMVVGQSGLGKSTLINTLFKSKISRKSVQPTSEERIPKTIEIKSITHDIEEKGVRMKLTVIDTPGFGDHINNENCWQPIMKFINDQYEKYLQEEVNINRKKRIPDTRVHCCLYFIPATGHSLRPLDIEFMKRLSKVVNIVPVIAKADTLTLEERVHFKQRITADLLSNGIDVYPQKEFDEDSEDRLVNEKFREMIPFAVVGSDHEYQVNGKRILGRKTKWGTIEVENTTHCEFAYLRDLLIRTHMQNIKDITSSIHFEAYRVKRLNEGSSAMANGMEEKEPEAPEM

binding (human septin 1 (human)): binds | binding (human septin 10 (human)): no binding | binding (human septin 3 (human)): no binding | binding (human septin 7 (human)): binds | binding (human septin 8 (human)): binds
B1: human septin 9, transcript variant 3, protein isoform c, full length (protein, UniProt Q9UHD8-2 1-568)
chain: T8 sequence

binding [1]: no binding
B2: human septin 10, Q9P0V9 1-454 (protein)
chain: T2 sequence

binding (human septin 5 (human)): no binding | binding (human septin 8 (human)): binds | binding [2]: no binding | binding [3]: binds
B3: human septin 7 (protein, UniProt Q16181-1 1-437)
chain: T3 sequence

Reference: paper PMC2970546
